# In publication PMC4336329 (PLoS ONE, 2015):
# Screen size: about 310,000 compounds; about 2,200 (0.71%) showed an effect of 50% or more. The effect is printed as a negative number. Some of the results follow.
# Target: human ether-à-go-go-related gene (hERG) potassium channel (human, UniProt Q12809)
# Test: primary screen, population patch clamp on CHO cells stably expressing hERG
# Sequence of human ether-à-go-go-related gene (hERG) potassium channel (Q12809 whole entry, looked up): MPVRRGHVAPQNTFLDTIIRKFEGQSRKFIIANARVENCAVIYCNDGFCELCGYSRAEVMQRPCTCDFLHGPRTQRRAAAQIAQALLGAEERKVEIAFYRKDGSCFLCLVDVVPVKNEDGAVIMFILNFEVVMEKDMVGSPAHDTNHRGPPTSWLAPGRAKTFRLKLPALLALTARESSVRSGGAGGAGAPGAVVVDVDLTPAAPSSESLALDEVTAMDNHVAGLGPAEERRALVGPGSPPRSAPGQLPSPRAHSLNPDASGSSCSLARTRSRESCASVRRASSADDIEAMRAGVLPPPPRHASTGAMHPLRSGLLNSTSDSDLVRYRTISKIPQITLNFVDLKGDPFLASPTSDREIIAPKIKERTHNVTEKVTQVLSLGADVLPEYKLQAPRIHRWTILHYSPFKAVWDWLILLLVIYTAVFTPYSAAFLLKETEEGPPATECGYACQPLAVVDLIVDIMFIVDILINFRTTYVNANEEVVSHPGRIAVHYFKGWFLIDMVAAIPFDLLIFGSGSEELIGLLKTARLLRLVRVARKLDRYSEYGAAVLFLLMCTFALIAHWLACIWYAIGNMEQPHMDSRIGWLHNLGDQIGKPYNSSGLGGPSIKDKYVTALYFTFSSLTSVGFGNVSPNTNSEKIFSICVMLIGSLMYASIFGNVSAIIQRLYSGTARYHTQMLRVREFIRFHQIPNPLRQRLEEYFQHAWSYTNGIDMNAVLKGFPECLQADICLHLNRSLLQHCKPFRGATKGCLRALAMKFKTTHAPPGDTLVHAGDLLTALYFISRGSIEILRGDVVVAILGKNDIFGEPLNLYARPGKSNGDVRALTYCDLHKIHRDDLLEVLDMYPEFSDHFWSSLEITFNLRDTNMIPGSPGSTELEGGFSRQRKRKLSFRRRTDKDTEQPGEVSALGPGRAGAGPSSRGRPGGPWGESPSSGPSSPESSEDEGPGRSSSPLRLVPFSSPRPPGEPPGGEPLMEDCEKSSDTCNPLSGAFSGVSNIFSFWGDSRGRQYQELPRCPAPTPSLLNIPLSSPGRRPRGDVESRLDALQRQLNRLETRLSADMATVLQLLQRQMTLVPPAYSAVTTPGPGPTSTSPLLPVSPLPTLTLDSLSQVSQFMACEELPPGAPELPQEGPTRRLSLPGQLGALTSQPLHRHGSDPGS
row,SMILES,"hERG current change (%, negative = inhibition) at 1uM"
1,Nn1c(Nc2ccccc2)nc2ccccc2c1=O,7.41%
2,Cc1cc(C(=O)NNC(=S)NC(=O)/C=C/c2ccccc2Cl)n[nH]1,0.163%
3,CCOc1c(C)cc(-c2[nH+]cccc2O)cc1C.[Cl-],-4.92%
4,Cc1ccc(NC(=O)Nn2cnnc2)cc1Cl,8.39%
5,O=C(CCSc1nc(-c2ccco2)cc(C(F)(F)F)n1)NCCc1ccccc1,8.66%
6,Cc1ccc(Cn2cc(-c3ccccc3)nn2)cc1,13.1%
7,OC(CN1CCN(C(c2ccccc2)c2ccccc2)CC1)c1ccc(Br)cc1 (centres unmarked),9.56%
8,COCCn1c(C)cc(O)c(C(=O)Nc2cccc(Cl)c2)c1=O,17.3%
9,CCOC(=O)C1CCCN(C2CC(=O)N(c3ccc(N4C(=O)CC(N5CCCC(C(=O)OCC)C5)C4=O)cc3)C2=O)C1 (centres unmarked),16%
10,CS(=O)(=O)N1CCN(c2ccccc2NC(=O)c2ccc3ccccc3c2)CC1,-1.17%
11,COc1ccc(/C=C2\SC(=O)N(CCNC(=O)C3CC(=O)N(c4ccccc4)C3)C2=O)cc1 (centres unmarked),-1.48%
12,Cl.O=C(COc1ccc(Cl)cc1)N(c1ccccc1Cl)C1CN2CCC1CC2 (centres unmarked),-2.13%
13,CC(NC(=O)c1ccc(Br)cc1)C(=O)NC1=NCCS1 (centres unmarked),12.7%
14,CSc1ccc(S(=O)(=O)N2CCC(C(=O)N3CCc4ccccc4C3)CC2)cc1,-0.505%
15,Cc1cc(NC(=O)c2sc(Nc3ccc(F)cc3)nc2N)no1,3.66%
16,Cn1c(SCC(=O)Nc2ccccc2-c2ccccc2)nnc1-c1ccco1,-11.5%
17,COc1ccccc1CNC(=O)COC(=O)c1cccc(S(=O)(=O)N2CCCC2)c1,30.5%
18,CCCCN(C)CCNC(=S)Nc1ccc2nc(N3CCN(CC)CC3)cc(C)c2c1,5.42%
19,CC(=O)Nc1ccc(-c2cc(N)n(-c3ccccc3)n2)cc1,11.2%
20,CCCCCC(=O)Nc1cc(S(=O)(=O)N2CCOCC2)ccc1N1CCCC1,-2.6%
21,O=S(=O)(Cc1cc(Oc2ccccc2)nc(-c2ccccc2)n1)c1ccccc1,10.5%
22,CN1CCN(C(CNS(=O)(=O)c2cccs2)c2cccnc2)CC1 (centres unmarked),1.07%
23,Cc1ccc(CNCc2ccccc2Cl)cc1.Cl,12.2%

row,SMILES,"hERG current change (%, negative = inhibition) at 1uM"
1,CCCC(C)NC(=O)c1nc(-c2ccccc2)n(-c2ccccc2)n1 (centres unmarked),8.43%
2,Cc1cccc(Cn2c(N3CCN(C)CC3)nc3c2c(=O)[nH]c(=O)n3C)c1,-5.22%
3,NNC(=O)c1cc(S(=O)(=O)N2CCOCC2)c[nH]1,2.97%
4,Cc1ccc(SCc2nc(-c3ccccc3)no2)cc1,10%
5,Cc1ccc(OCCC(=O)Nc2ccc(F)c(F)c2)cc1,1.8%
6,NS(=O)(=O)c1ccc(CNC(=O)Cc2ccccc2[N+](=O)[O-])cc1,12.4%
7,COc1ccc(C)cc1S(=O)(=O)N1CCCC(C(=O)NCc2ccccn2)C1 (centres unmarked),2.53%
8,CCc1ccc(NC(=O)CSc2nc3ccccc3c(=O)n2CCCN2CCC(C)CC2)cc1,0.336%
9,COc1ccc(C)cc1NCC(=O)Nc1ccc(C(C)(C)C)cc1,19.4%
10,Cc1ccccc1C(=O)Nc1cccc(-c2ccc3nncn3n2)c1,-11.4%
11,CCOC(=O)CCc1c(C)c(C#N)c2nc3ccccc3n2c1-n1ccnc1C,-20.4%
12,Cc1ccc2c(c1)CCCN2C(=O)c1ccoc1C,0.956%
13,COC(CNC(=O)c1ccc2c(c1)nc(C)n2-c1cccc(C)c1)OC,6.3%
14,CCN(CC)CCOC(=O)c1ccc(Cl)cc1.Cl,-3.82%
15,COc1ccc(CN(C)C(=O)c2cnc(C)cn2)c(OC)c1OC,16.8%
16,O=C1/C(=C/c2ccncc2)SC(=S)N1C1CCS(=O)(=O)C1 (centres unmarked),14.1%
17,CCOc1ccc(C(=O)COC(=O)c2cccc(-n3cnnn3)c2)cc1,-2.87%
18,Nc1ccc(C(=O)NNC(=O)C2COc3ccccc3O2)cc1[N+](=O)[O-] (centres unmarked),-1.72%
19,O=C1COc2ccc(C(=O)COC(=O)c3cc(S(=O)(=O)NCc4ccccc4)ccc3O)cc2N1,4.84%
20,Cc1nn(-c2ccccc2)c2c1C(c1ccc3c(c1)OCO3)SCC(=O)N2 (centres unmarked),12.5%
21,O=C(Cc1ccccc1)Nc1ccccc1N1CCCC1,14.7%
22,Cc1ccc2ccccc2c1NC(=O)CNC1CCCCC1.[O-][Cl+3]([O-])([O-])O,14.8%
23,CCCn1c2c(c(O)c(C(=O)Nc3nccs3)c1=O)CCCC2,1.07%

row,SMILES,"hERG current change (%, negative = inhibition) at 1uM"
1,C=CCN1CC[C@]23c4c5ccc(O)c4O[C@H]2/C(=N/NC(=O)c2ccccc2)CC[C@@]3(O)[C@H]1C5,-40.1%
2,CC(C)=CC(=O)OCC(=O)Nc1ccc(Cl)cc1,3.01%
3,COc1ccc(CC(=O)N2CCN(c3ccccc3)CC2)cc1OC,17.8%
4,COc1ccc([N+](=O)[O-])cc1NC(=O)c1cc(C)c(C)o1,7.29%
5,CC(C)c1c(O)nc(SCCN(C)C)[nH]c1=O.Cl,8.81%
6,Cc1ccc2c(c1)N(CC(=O)N1CCCC1)C(=O)c1cccnc1O2,5.54%
7,COc1cc(C(=O)NCC(=O)N/N=C\C(C)=C/c2ccccc2)cc(OC)c1OC,9.29%
8,CN1CC(=O)N(CC(=O)NCc2ccc3c(c2)OCO3)C1=O,-0.832%
9,CCOc1ccc(N(CC(=O)Nc2cccnc2)S(C)(=O)=O)cc1,7.6%
10,CC1CCCN(CC(=O)Nc2cccc([N+](=O)[O-])c2)C1 (centres unmarked),0.917%
11,Cn1c(=O)c2sc3c(c2n(CC(=O)Nc2ccccc2)c1=O)COC(C)(C)C3,13.8%
12,COc1ccc(-n2c(SCC(=O)N/N=C/c3ccccc3OCC(=O)O)nc3ccccc3c2=O)cc1,11.6%
13,O=C(c1ccc(Cl)nc1)N1CCN(S(=O)(=O)c2ccccc2)CC1,7.52%
14,CN(Cc1cccc(F)c1)C(=O)CN1CCN(S(=O)(=O)c2ccc3c(c2)OCCCO3)CC1,14.5%
15,COC(=O)CCn1[nH]c(=O)c2ccccc2c1=O,12.6%
16,COc1ccccc1CNC(=O)COC(=O)C1=COCCO1,14.9%
17,O=c1c2cc(N3CCOCC3)ccc2[nH]c(=S)n1CC1CCCO1 (centres unmarked),-3.92%
18,Cc1sc2nc(N)sc2c1C,6.77%
19,CCCNC(=O)CN1CCC(c2nc3ccccc3[nH]2)CC1,21.5%
20,CN(C)c1ccc(S(=O)(=O)NCC(=O)OCC(=O)Nc2cccc(Cl)c2)cc1[N+](=O)[O-],1.08%
21,Cc1ccc2c(c1)C(N1CCCC1=O)CC(c1ccco1)N2 (centres unmarked),3.23%
22,COc1ccc(COC(=O)N/N=C/c2cccs2)cc1,11.1%
23,COc1ccc2oc(C(=O)NC3CCCCC3)c(C)c2c1,4.78%

row,SMILES,"hERG current change (%, negative = inhibition) at 1uM"
1,Oc1c(Br)cc(Br)cc1C=Nc1ccc2c(c1)OCO2,8.24%
2,COC(=O)c1cc(S(=O)(=O)Nc2cccc(C)c2C)cn1C,13.5%
3,CCOc1ccc(S(=O)(=O)Nc2ccc(C(=O)NCCCN3CCCC3=O)cc2)cc1,4.1%
4,C=CCOc1ccc(CNc2nn[nH]n2)cc1OC,9.95%
5,C/C(CS(=O)(=O)c1ccccc1)=N\O,8.7%
6,COCCCn1cnc2oc3nc4ccccc4nc3c2c1=O,5.49%
7,COC(=O)c1sccc1NC(=O)c1csc(C)c1,9.14%
8,COc1ccc(OC)c(NC(=O)CSc2nnnn2-c2ccccc2F)c1,13.1%
9,Cc1ccc(-n2[nH]c(C)c(/C=N/Nc3ccc([N+](=O)[O-])cc3[N+](=O)[O-])c2=O)cc1,10.7%
10,Cc1ccc(CN2CC(C(=O)N3CCN(S(=O)(=O)c4cccc(F)c4)CC3)CC2=O)cc1 (centres unmarked),-9.62%
11,Cc1cc(=O)oc2cc(OCC(=O)N3CCN(C(=O)C4COc5ccccc5O4)CC3)c(Cl)cc12 (centres unmarked),0.472%
12,O=C(Nc1ccccc1)N(CCN1CCOCC1)Cc1cccc(Cl)c1,1.44%
13,Cc1n[nH]c(=O)c2c1nnn2Cc1ccccc1Cl,13%
14,Cc1onc(-c2ccccc2)c1C(=O)N1CCc2ccccc21,20.3%
15,O=C(Cn1c(=O)n(-c2ccccc2)c(=O)c2oc3ccccc3c21)Nc1ccccc1,12.1%
16,CCOc1ccccc1N(CC(=O)Nc1cccc(OC)c1)S(=O)(=O)c1ccccc1,14.7%
17,O=C(O)c1cccc(Nc2nc(-c3ccc([N+](=O)[O-])cc3)nc3ccccc23)c1,9.79%
18,CN(Cc1ccccc1)C(=O)c1ccc(NC2=NC3CS(=O)(=O)CC3S2)cc1 (centres unmarked),-3.47%
19,CNc1ccn(C2CCCO2)c(=O)n1 (centres unmarked),14.8%
20,Cc1ccc(C(=O)N2CCN(c3ccc(NC(=O)c4cccnc4Cl)cc3)CC2)cc1,1.36%
